Assay results as given in PubChem BioAssay AID1347165 (National Center for Advancing Translational Sciences (NCATS), 2019).
In all, about 220,000 compounds went through this assay and about 5,700 (2.6%) were called active. Inconclusive results, whose numbers are uncertain, are shown with a selection of clear calls. Calls come from the whole dose curve; as a rule, active = well fitted inhibition curve with a large enough effect; inconclusive = small, poorly fitted or top-dose-only effect; inactive = no such curve, though single readings can be large or run the other way. Potencies of inconclusive entries are doubtful fits and often do not repeat.
Note: nearly all actives have a fitted effect of over 70% in size.
Potency is the fitted concentration of half-maximal effect; tags give direction and shape of the fitted curve.
Throughout, for activity change, negative = inhibition: 0% is about no effect.

What follows are compounds tested against Lysine-specific demethylase 5B (Homo sapiens) (UniProt Q9UGL1) (assay: Primary screen for KDM5B Histone Demethylases FDH-coupled qHTS). Conditions: FDH-coupled NADH fluorescence (FDH is formaldehyde dehydrogenase); activity change, negative = inhibition: at 57.7 µM (top of the series) unless noted.
Sequence of UniProt Q9UGL1 (Q9UGL1 whole entry, looked up): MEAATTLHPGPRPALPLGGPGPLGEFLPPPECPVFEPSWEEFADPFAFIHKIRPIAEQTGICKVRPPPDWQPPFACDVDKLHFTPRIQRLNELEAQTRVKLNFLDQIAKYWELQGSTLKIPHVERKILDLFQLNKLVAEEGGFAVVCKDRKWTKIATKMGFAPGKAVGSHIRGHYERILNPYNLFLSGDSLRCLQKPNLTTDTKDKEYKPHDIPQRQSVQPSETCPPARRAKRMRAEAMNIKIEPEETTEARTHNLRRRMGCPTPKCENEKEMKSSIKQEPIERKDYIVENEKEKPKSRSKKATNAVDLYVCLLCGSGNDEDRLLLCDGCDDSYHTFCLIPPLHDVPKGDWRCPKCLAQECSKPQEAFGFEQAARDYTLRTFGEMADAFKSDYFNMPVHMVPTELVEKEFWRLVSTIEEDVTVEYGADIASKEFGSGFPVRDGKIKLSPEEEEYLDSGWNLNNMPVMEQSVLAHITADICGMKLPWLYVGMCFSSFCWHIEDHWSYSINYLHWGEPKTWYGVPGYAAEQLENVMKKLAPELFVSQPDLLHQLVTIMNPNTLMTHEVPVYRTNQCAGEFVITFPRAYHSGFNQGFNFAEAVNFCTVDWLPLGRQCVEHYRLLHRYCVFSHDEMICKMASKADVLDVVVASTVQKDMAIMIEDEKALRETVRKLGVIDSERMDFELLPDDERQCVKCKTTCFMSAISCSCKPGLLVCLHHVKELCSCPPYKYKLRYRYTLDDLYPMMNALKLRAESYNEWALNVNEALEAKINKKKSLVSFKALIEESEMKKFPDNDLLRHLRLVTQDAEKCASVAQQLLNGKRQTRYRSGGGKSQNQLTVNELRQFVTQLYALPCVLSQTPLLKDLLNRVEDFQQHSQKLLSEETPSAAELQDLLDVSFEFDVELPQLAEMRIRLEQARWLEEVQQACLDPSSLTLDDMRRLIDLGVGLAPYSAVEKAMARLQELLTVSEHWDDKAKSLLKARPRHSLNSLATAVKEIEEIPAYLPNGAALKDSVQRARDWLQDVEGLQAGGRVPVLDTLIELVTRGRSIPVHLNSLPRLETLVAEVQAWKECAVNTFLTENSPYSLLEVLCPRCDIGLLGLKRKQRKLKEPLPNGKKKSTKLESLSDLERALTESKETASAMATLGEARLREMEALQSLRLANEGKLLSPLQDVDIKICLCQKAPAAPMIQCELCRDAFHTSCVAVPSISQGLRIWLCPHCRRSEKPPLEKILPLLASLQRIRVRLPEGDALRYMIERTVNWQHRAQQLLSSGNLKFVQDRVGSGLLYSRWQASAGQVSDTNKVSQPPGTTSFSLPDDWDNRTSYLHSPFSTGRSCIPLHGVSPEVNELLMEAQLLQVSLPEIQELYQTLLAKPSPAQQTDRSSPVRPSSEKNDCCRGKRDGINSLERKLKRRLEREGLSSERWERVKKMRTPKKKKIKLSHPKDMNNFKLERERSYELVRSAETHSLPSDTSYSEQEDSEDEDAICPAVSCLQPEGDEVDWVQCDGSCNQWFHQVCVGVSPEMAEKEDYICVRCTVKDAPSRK
Method in brief: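 qHTS format, multiple compound concentrations. Buffer 50 mM HEPES pH 7.5/0.01% Tween-20; 200 nM KDM5BΔAP final; 10 min compound preincubation; substrate-mix levels 12.5 µM peptide, 25 µM α-KG, 0.25 mM NAD⁺; 30 min RT; ΔRFU.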
With CC1CCN(Cc2nnnn2CC(=O)N2CCN(c3ccccc3F)CC2)CC1 the Potency was inconclusive: 2.51 µM [inhibitor, partial curve, poor fit]. In the case of Cc1cc(NC(=O)c2ccc(Cn3ccn4nc5c(c4c3=O)CCCC5)cc2)ccc1F, the Potency is reported as inconclusive: 28.2 µM [inhibitor, single point]. For CC(=O)N1Cc2ccccc2CC2(CCCN(CCc3ccccc3)C2)C1 (centres undefined), the “activity change, negative = inhibition” value was inactive: -12.8% [at 115 µM]. For COc1ccc(CNC(=O)c2cc(Cl)ccc2O)cc1OC, the “activity change, negative = inhibition” value was inactive: 7.75%. With O=C(NCCc1ccccc1)c1ccc(CSc2nc3ccncc3n2Cc2cccc(F)c2)cc1 the activity change, negative = inhibition was inconclusive: -30.8% [inhibitor]. For O=C(Nc1cccnc1)c1cc(=O)c2ccccc2o1, the “activity change, negative = inhibition” value was inactive: 5.38%. In the case of CN1CCc2nc3sc(C(=O)c4ccc(Cl)cc4)c(N)c3cc2C1, the Potency is reported as inconclusive: 20 µM [inhibitor, single point]. For O=S(=O)(NC(c1ccccc1)c1cccs1)c1ccccc1 (centres undefined), the Potency was inconclusive: 39.8 µM [inhibitor, single point]. In the case of O=C(O)COc1cccc(/C=C2/SC(=S)N(Cc3ccccc3)C2=O)c1, the Potency is reported as inconclusive: 39.8 µM [inhibitor, partial curve, poor fit]. In the case of O=C(c1cc2cc(Cl)ccc2[nH]1)N(Cc1ccccc1)Cc1ccco1, the “activity change, negative = inhibition” value is reported as inactive: -24.1%. Oc1ccc(N2CCN(c3nc(-c4cccnc4)nc4ccccc34)CC2)cc1 was tested, and the Potency was inconclusive: 39.8 µM [inhibitor, single point]. CN1CC(=O)N(c2ccc(Cl)cc2)Cc2c1ncnc2N1CCC(c2ccccc2)CC1 was tested, and the Potency was inconclusive: 15.8 µM [inhibitor, single point]. For CCCc1nn(C)c2c(=O)[nH]c(-c3cc(S(=O)(=O)Nc4ccccc4C)ccc3OCC)nc12, the Potency was inconclusive: 39.8 µM [inhibitor, single point]. For CNC(=O)NC(=O)C(C)Sc1ncc(-c2ccc(F)cc2)n1CC(C)C (centres undefined), the “activity change, negative = inhibition” value was inactive: 19.8%. With COc1cc(OC)c(CNC(=O)c2c(C)noc2-c2cccs2)c(OC)c1 the “activity change, negative = inhibition” value was inactive: -14.8%. For CCCCCC/C(C)=N/NC(N)=S, the Potency was inconclusive: 15.8 µM [inhibitor, partial curve, poor fit]. In the case of C=CCSc1ccccc1NC(=O)c1cc(C)cc(C)c1, the “activity change, negative = inhibition” value is reported as inactive: -4.98%. In the case of COc1ccc(NC(=O)C2=C(C)Nc3ncnn3C2c2ccccn2)cc1 (centres undefined), the Potency is reported as inconclusive: 14.1 µM [inhibitor, partial curve, poor fit]. Cc1ccc(C(=O)[C@@H]2[C@@H]3CCCN3[C@]3(C(=O)Nc4c(Cl)cccc43)[C@@]23C(=O)Nc2ccccc23)cc1 was tested, and the Potency was inconclusive: 15.8 µM [inhibitor, partial curve, poor fit]. For CC(=O)c1cc(CN(CCc2ccccc2)CC2CCCN(C)C2)cs1 (centres undefined), the Potency was inconclusive: 3.98 µM [inhibitor, full curve]. COCC(=O)N[C@@H]1CN(Cc2ccc(C)s2)CC[C@@H]1c1n[nH]c(C)n1 was tested, and the Potency was inconclusive: 14.1 µM [inhibitor, partial curve, poor fit]. With Cc1nc(CC(=O)NCc2cccnc2N2CCOCC2)cs1 the Potency was inconclusive: 35.5 µM [inhibitor, single point]. With O=S(=O)(NCCc1nnc2ccc(SCc3c(F)cccc3Cl)nn12)c1ccccc1 the Potency was inconclusive: 28.2 µM [inhibitor, single point]. For CCC(C)C(=O)N1CCC2(CC1)NCCc1c2[nH]c2ccccc12 (centres undefined), the Potency was inconclusive: 31.6 µM [inhibitor, partial curve, poor fit]. For COc1cccc(OC)c1C(=O)Nc1cccc(-c2nc3ccc(C)cc3o2)c1, the Potency was inconclusive: 35.5 µM [inhibitor, single point]. With COc1ccccc1-c1cc(C(=O)O)c2cc(C)cc(C)c2n1 the “activity change, negative = inhibition” value was inactive: 228%. In the case of COc1ccc(-c2ccc3nnc(CNC(=O)CCc4ccccc4)n3n2)cc1, the Potency is reported as inconclusive: 3.16 µM [inhibitor, full curve, poor fit]. For COc1ccc(/C=C/C(=O)c2cc(C)ccc2OC(=O)c2cccs2)cc1OC, the “activity change, negative = inhibition” value was inactive: -9.82%. For COCCC(=O)N1CCc2nnc([C@@H]3C[C@@H](O)CN3C(C)C)n2CC1, the Potency was inconclusive: 39.8 µM [inhibitor, single point]. CN(C)C[C@@H]1CN(C2CCOCC2)C[C@H]1NC(=O)c1ccoc1 was tested, and the Potency was inconclusive: 39.8 µM [inhibitor, single point]. In the case of COc1ccc(N2Cc3c(ncnc3N3CCN(Cc4ccccc4)CC3)N(C)CC2=O)cc1, the “activity change, negative = inhibition” value is reported as inactive: -25.1%. O=C(NCCC(=O)N1CCCC1)c1cc2ccccc2oc1=O was tested, and the Potency was inconclusive: 25.1 µM [inhibitor, partial curve, poor fit]. In the case of Cc1ccc(NC(=O)N2CC[C@H]3C(=O)NCCCCCN(Cc4cccnc4)[C@@H]3C2)cc1C, the Potency is reported as inconclusive: 39.8 µM [inhibitor, partial curve, poor fit]. CC(C)Oc1ccc(CNC(=O)c2ccccc2NC(=O)c2nsc3ccccc23)cc1 was tested, and the Potency was inconclusive: 3.16 µM [inhibitor, full curve, poor fit]. In the case of CC(C)C(c1ccc(O)cc1)c1ccc(O)cc1, the “activity change, negative = inhibition” value is reported as inactive: -17.3%. For Cc1ccc(-n2ncc3c(N4CCCCCC4)ncnc32)cc1C, the Potency was inconclusive: 39.8 µM [inhibitor, single point]. For COc1cc(Cl)c(C)cc1NC(=O)c1cc2n(n1)CC(c1ccc(Cl)cc1)OC2 (centres undefined), the Potency was inconclusive: 22.4 µM [inhibitor, single point]. For COc1ccc(C(=O)Nc2c(NC3CCCC3)c3ccccc3oc2=O)cc1OC, the “activity change, negative = inhibition” value was inactive: -4.58%. For CSc1ccc(NC(=O)Nc2cccc(-c3ccc(N4CCOCC4)nn3)c2)cc1, the “activity change, negative = inhibition” value was inactive: -15.5%. CCCCNc1ncnc2c1CN(C1CCCNCC1)C(=O)CN2C (centres undefined) was tested, and the Potency was inconclusive: 89.1 µM [inhibitor, partial curve]. With COc1ccc(NC(=O)c2c(C)nc3n2CCC(Nc2ccc(F)cc2)C3)cn1 (centres undefined) the Potency was inconclusive: 20 µM [inhibitor, partial curve]. For COc1ccccc1CNC(=O)c1ccc2c(c1)N(Cc1ccc(C)cc1)CCS2, the Potency was inconclusive: 31.6 µM [inhibitor, partial curve, poor fit]. In the case of CNC(=O)c1cc(-c2ccc(OC)nc2)cc2c1OCCN2Cc1cccnc1, the Potency is reported as active: 28.2 µM. With CN1CCN(c2ccc(-c3cc4c(ccn4C)c(C(=O)NCCN4CCNC4=O)n3)cc2)CC1 the “activity change, negative = inhibition” value was inactive: -29.8%. For CCCn1nc(C)cc1CN(C)Cc1ccc(=O)n(CC)c1, the Potency was inconclusive: 11.2 µM [inhibitor, partial curve]. For CCCC(NC(=O)COc1cc2c(c3oc(=O)cc(C)c13)CCC(C)(C)O2)C(=O)O (centres undefined), the Potency was inconclusive: 22.4 µM [inhibitor, partial curve, poor fit]. With c1ccc(Nc2ccc(-c3ccc(Nc4ccccc4)cc3)cc2)cc1 the “activity change, negative = inhibition” value was inactive: 23%. COCCNC(=O)/C(C#N)=C/c1c(N2CCN(C)CC2)nc2c(C)cccn2c1=O was tested, and the Potency was inconclusive: 31.6 µM [inhibitor, partial curve, poor fit]. O=C1/C(=C/c2cccnc2)SC(=S)N1NS(=O)(=O)c1ccccc1 was tested, and the Potency was inconclusive: 28.2 µM [inhibitor, single point]. In the case of Cc1cn2nc(C(=O)N3CCC(NC(=O)c4ccc(Cl)cc4)CC3)cc2c(=O)[nH]1, the Potency is reported as inconclusive: 31.6 µM [inhibitor, partial curve, poor fit]. CCOC(=O)c1cnc2nc(NCc3ccc(OCC)cc3)[nH]n2c1=O was tested, and the Potency was inconclusive: 25.1 µM [inhibitor, single point]. For CCCCOc1ccc(C(=O)NCCc2csc(-c3ccc(OC)cc3)n2)cc1, the Potency was inconclusive: 31.6 µM [inhibitor, partial curve, poor fit]. In the case of CCc1ccccc1S(=O)(=O)N1CCCN(C)c2ccccc21, the Potency is reported as inconclusive: 15.8 µM [inhibitor, partial curve]. With CCN(Cc1ccccc1)S(=O)(=O)c1ccc2[nH]c3c(c2c1)CCCCC3 the Potency was inconclusive: 25.1 µM [inhibitor, single point]. With C=CCn1cc2c3c(cccc31)[C@H](CC(C)C)N[C@H](C(=O)NCc1ccc(F)cc1)C2 the Potency was inconclusive: 50.1 µM [inhibitor, single point]. For CCC(C(=O)NCCc1cc(OC)ccc1OC)n1nc(C)c2sc3ccccc3c2c1=O (centres undefined), the Potency was inconclusive: 1 µM [inhibitor, partial curve, poor fit]. COc1cccc(C(=O)NCC(=O)O)c1 was tested, and the “activity change, negative = inhibition” value was inactive: 3.42%. With CC(Oc1ccccc1Cl)C(=O)Nc1ccc(S(=O)(=O)N2CCN(C)CC2)cc1 (centres undefined) the Potency was inconclusive: 14.1 µM [inhibitor, partial curve, poor fit]. For Cc1cccc(C(=O)NCCC(=O)NCc2ccccc2F)c1, the “activity change, negative = inhibition” value was inactive: 21.9%. With CCc1nc2c(c(-c3ccc(Cl)cc3)n1)CN(C(=O)Cc1ccccn1)CC2 the Potency was inconclusive: 15.8 µM [inhibitor, single point]. COc1ccc(CN2CCc3nc(C(C)C)nc(-c4ccc(Cl)cc4)c3CC2)cc1 was tested, and the Potency was inconclusive: 28.2 µM [inhibitor, full curve, poor fit]. CC(C)(C)NC(=O)CCSc1nc(-c2ccc3c(c2)OCO3)cc(C(F)(F)F)n1 was tested, and the Potency was inconclusive: 35.5 µM [inhibitor, partial curve, poor fit]. In the case of Cc1oc2c(c1C(=O)NCc1ccc3c(c1)OCO3)CN(Cc1ccc(F)cc1)CC2, the Potency is reported as inconclusive: 15.8 µM [inhibitor, partial curve, poor fit]. For Cc1ccc(NC(=O)c2ccccc2OCC(=O)Nc2ccccc2F)cc1S(=O)(=O)N(C)C, the Potency was inconclusive: 35.5 µM [inhibitor, partial curve, poor fit].
